# Experimental data from PubChem BioAssay AID651820 (National Center for Advancing Translational Sciences (NCATS), 2012).
# Values joined by “and” are separate entries in the source; they are usually repeats but may differ in a detail not shown here. Equal entries are not always repeated. About 12,000 (3.5%) of roughly 340,000 compounds were called active. This list was built around the results that the source calls inconclusive (neither active nor inactive); the mix of calls is not that of the screen. Calls follow the shape of the dose curve; as a rule, active = well fitted inhibition curve with a large enough effect; inconclusive = small, poorly fitted or top-dose-only effect, or another doubt; inactive = no such curve, though single readings can be large or run the other way. A potency beside an inconclusive call is a rough fit, not a confirmed value.
# Test: qHTS Assay for Inhibitors of Hepatitis C Virus (HCV)
# Settings: Huh7.5.1 HCVcc-Cre (HCVcc is cell-culture hepatitis C virus) infection, luciferase reporter, 44 h; series mostly up to 41.8 µM
# In short: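 Infectious HCV cell culture screen: compound-treated cells (1,000/well, pre-plated 4 h) are infected with HCVcc-Cre at roughly 0.5 moi and grown 44 h. Infection is quantified by luciferase signal after 15 min substrate incubation at room temperature.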
# Potency is read from the fitted curve at half-maximal effect; tags tell the direction and shape of the fitted curve.
row,SMILES,Potency
1,Cc1ccc(NC(=O)c2ncn(CC(=O)N[C@H](C)c3cccc4ccccc34)n2)cc1C,"inconclusive: 31.6 µM [inhibitor, single point]"
2,Cc1ccc(C(C)C)c(OCCCCN2CCNCC2)c1,"inconclusive: 11.2 µM [inhibitor, partial curve]"
3,COc1cc2c(cc1OC)CN(C(=O)CN1CCN(S(=O)(=O)c3ccc(C)c(C)c3)CC1)CC2,"inconclusive: 31.6 µM [inhibitor, single point]"
4,C=CCN=c1scc(-c2ccc(F)cc2)n1/N=C/c1ccccn1,"inconclusive: 11.2 µM [inhibitor, partial curve]"
5,CCN(CC)CC(=O)Nc1ccc(/C(C)=N/NC2=NCCN2)cc1,"inconclusive: 31.6 µM [inhibitor, single point]"
6,CCOC(=O)c1c(NC(=O)COC(=O)Cc2n[nH]c(=O)c3ccccc23)sc(C(=O)N(C)C)c1C,"inconclusive: 22.4 µM [inhibitor, single point]"
7,CC(C)CN(C(=O)COC(=O)c1ccc(Cl)nc1)c1c(N)n(Cc2ccccc2)c(=O)[nH]c1=O,inactive
8,NC(=S)N/N=C/c1ccccc1O,inactive
9,COc1cc(C(=O)NCC(=O)Nc2c(C)cccc2C)ccc1OCc1ccccc1,"inconclusive: 11.2 µM [inhibitor, partial curve]"
10,CCOC(=O)Cc1nnc(Nc2cc(C)ccc2C)c2ccccc12,inactive
11,CCOC(=O)C1CCCN(CC(O)COc2ccccc2C(C)=O)C1 (stereo not given),"inconclusive: 7.94 µM [inhibitor, partial curve]"
12,NNC(=O)c1cc2c(N3CCC(Cc4ccccc4)CC3)ncnc2s1,"inconclusive: 10 µM [inhibitor, partial curve]"
13,Cc1ccccc1OCC(=O)O/N=C(\N)Cc1cccs1,inactive
14,O=C(Cc1ccc(Cl)c(Cl)c1)Nc1ccccc1N1CCOCC1,"inconclusive: 2.51 µM [inhibitor, partial curve]"
15,CCN(C(=O)COC(=O)/C=C/c1ccco1)C1CCCCC1,"inconclusive: 5.62 µM [inhibitor, single point]"
16,Cc1ccc(-c2csc(NC(=O)c3cccc(S(=O)(=O)N4CCN(C)CC4)c3)n2)cc1,"inconclusive: 5.62 µM [inhibitor, single point]"
17,Cc1cc(C)c2oc(C(=O)Nc3ccc(S(=O)(=O)N4CCCC(C)C4)cc3)cc(=O)c2c1 (stereo not given),"inconclusive: 31.6 µM [inhibitor, single point]"
18,CCCCNc1c(-c2cccc(Sc3ccc(OC)cc3)c2)nc2ccccn12,"inconclusive: 10 µM [inhibitor, partial curve]"
19,CC1CCCN(CCCNC(=O)C2CC(=O)N(c3ccc(F)c(Cl)c3)C2)C1 (stereo not given),"inconclusive: 11.2 µM [inhibitor, single point]"
20,COc1cc(-c2cc(C(=O)Nc3ccc(O)cc3)c3ccccc3n2)cc(OC)c1OC,"inconclusive: 15.8 µM [inhibitor, partial curve]"
21,Cc1ccn2cc(-c3ccc(NC(=O)c4ccco4)cc3)nc2c1,"inconclusive: 11.2 µM [inhibitor, single point]"
22,COCCN(Cc1cc2cc3c(cc2nc1Cl)OCO3)C(=O)Nc1ccccc1OC,"inconclusive: 22.4 µM [inhibitor, single point]"

row,SMILES,Potency
1,Cc1cccn2c(=O)c3cc(C(=O)NCc4ccco4)c(=N)n(C(C)C)c3nc12,"inconclusive: 31.6 µM [inhibitor, single point]"
2,CCCC(c1nnnn1Cc1cccs1)N1CCN(C)CC1 (stereo not given),"inconclusive: 3.55 µM [inhibitor, single point]"
3,CNc1cc(CSc2ccc(Cl)cc2)nc(C)n1,inactive
4,CS(=O)(=O)N(CC(=O)Nc1ccccc1C(=O)N1CCCC1)c1ccccc1Br,"inconclusive: 35.5 µM [inhibitor, partial curve]"
5,COc1cc(NC(=O)NNC(=O)c2cc3occc3n2C)cc(OC)c1OC,inactive
6,COc1ccc(CNC(N)=O)cc1OC,"inconclusive: 5.01 µM [inhibitor, single point]"
7,O=C(N/N=C/c1cccc([N+](=O)[O-])c1)c1ccc(COc2ccccc2-c2ccccc2)cc1,"inconclusive: 31.6 µM [inhibitor, single point]"
8,CCCn1cnc2c(cnn2-c2ccc(F)cc2)c1=O,"inconclusive: 31.6 µM [inhibitor, single point]"
9,CC(=O)c1ccc(N2Cc3ccccc3C2)cc1,"inconclusive: 10 µM [inhibitor, single point]"
10,O=C(O)c1cc(NCc2cccs2)ccc1N1CCOCC1,inactive
11,CCN1CCC2(CC1)N=C(c1ccc(F)cc1)C(=S)N2C(=O)c1ccc(C)cc1,"inconclusive: 14.1 µM [inhibitor, single point]"
12,Cc1noc(C)c1C(=O)N1CCN(Cc2ccc3c(c2)OCO3)CC1,"inconclusive: 11.2 µM [inhibitor, single point]"
13,Cc1sc2nc(C3CC3)nc(N3CCN(C(=O)c4ccc(Cl)cc4)CC3)c2c1C,"inconclusive: 11.2 µM [inhibitor, partial curve]"
14,CCN(CC)S(=O)(=O)c1ccc(Cl)c(NC(=O)COc2ccccc2[N+](=O)[O-])c1,"inconclusive: 3.55 µM [inhibitor, partial curve]"
15,COCCn1c(C)cc(C(=O)CSc2cc(C)c3ccc(OC)cc3n2)c1C,"inconclusive: 11.2 µM [inhibitor, partial curve]"
16,O=C(CSc1nnc(C2CC2)n1CC1CCCO1)Nc1ccc(Cl)cc1 (stereo not given),inactive
17,Cc1ccc(OCC(=O)Nc2cccnc2Cl)cc1C,inactive
18,COc1ccc(Nc2nnc(SCc3cn4c(C)cccc4n3)s2)cc1,"inconclusive: 10 µM [inhibitor, partial curve, poor fit]"
19,CCCCC(=O)Nc1ccc(C(=O)Nc2ccc3c(c2)OCO3)cc1,"inconclusive: 14.1 µM [inhibitor, single point]"
20,COc1ccc(C(=O)/C=C/c2ccc(O)cc2)c2c1CC(O)C(C)(C)O2 (stereo not given),"inconclusive: 11.2 µM [inhibitor, partial curve]"
21,CC(C)(C)OC(=O)N1CCC(C(=O)Nc2cccc(C(=O)NCc3ccccc3)c2)CC1,"inconclusive: 31.6 µM [inhibitor, single point]"
22,Cn1nc(C(=O)NNc2c(F)c(F)cc(F)c2F)c2ccccc2c1=O,"inconclusive: 25.1 µM [inhibitor, partial curve]"

row,SMILES,Potency
1,Cc1ccc(-c2cc(C(=O)Nc3nccs3)c3ccccc3n2)o1,"inconclusive: 31.6 µM [inhibitor, single point]"
2,O=C(Nc1ccc(CN2CCCCC2)cc1)c1cccc(Br)c1,"inconclusive: 14.1 µM [inhibitor, single point]"
3,NC(=O)N/N=C(/CCCCCC/C(=N\NC(N)=O)c1ccccc1)c1ccccc1,"inconclusive: 11.2 µM [inhibitor, partial curve]"
4,Fc1ccc(C(c2nnnn2Cc2cccs2)N2CCN(C3CCCCC3)CC2)cc1 (stereo not given),"inactive and inconclusive: 794 nM [inhibitor, full curve, poor fit]"
5,CC(NC(=O)CN1CCCC1)C12CC3CC(CC(C3)C1)C2 (stereo not given),"inconclusive: 31.6 µM [inhibitor, single point]"
6,Fc1ccccc1CSc1ccc(-c2ccco2)nn1,inactive
7,Cc1ccc(N(C(C)C(=O)Nc2ccc(S(=O)(=O)N3CCOCC3)cc2)S(C)(=O)=O)cc1C (stereo not given),"inconclusive: 25.1 µM [inhibitor, single point]"
8,CS(=O)(=O)N1CCN(c2ccc(NC(=O)c3ccc(-c4ccc(Cl)cc4)o3)cc2)CC1,"inconclusive: 0.501 µM [inhibitor, partial curve, poor fit]"
9,Cn1c(N)c(C(=O)COC(=O)c2ccc(Cl)c(S(=O)(=O)N3CCCC3)c2)c(=O)n(C)c1=O,"inconclusive: 8.91 µM [inhibitor, partial curve, poor fit]"
10,CCCCn1c(=O)c(C(=O)Nc2ccccc2F)c(O)c2ccccc21,"inconclusive: 3.16 µM [inhibitor, partial curve]"
11,COc1ccc(CC2(CO)CCN(Cc3ccc4nsnc4c3)CC2)cc1,"inconclusive: 12.6 µM [inhibitor, single point]"
12,CCSc1ccccc1C(=O)Nc1ccc([N+](=O)[O-])cc1OC,"inconclusive: 1.12 µM [inhibitor, full curve, poor fit]"
13,CC(=O)Nc1ccc(S(=O)(=O)N2CCSC2c2ccccc2)cc1 (stereo not given),"inconclusive: 31.6 µM [inhibitor, single point]"
14,N#Cc1c(NC(=O)c2ccccc2Cl)n(Cc2ccccc2)c2nc3ccccc3nc12,"inconclusive: 31.6 µM [inhibitor, single point]"
15,Nc1nonc1C(=O)NCCNC(=O)c1ccc(Cl)c(Cl)c1,inactive
16,CC(=O)Nc1cccc(NC(=O)CSc2n[nH]c(-c3ccccc3)n2)c1,"inconclusive: 10 µM [inhibitor, partial curve]"
17,CCCCN1CC(=O)N2[C@H](c3ccc(Cl)cc3)[C@@H]3C(=O)N(CC)C(=O)[C@@H]3[C@]2(Cc2ccccc2)C1=O,inactive
18,CC[n+]1c(/C=C(\C)SC)sc2ccccc21,"inconclusive: 11.2 µM [inhibitor, partial curve]"
19,Cc1sc(NC(=O)c2ccccc2)c(C(=O)NCCN(C)C)c1C,"inconclusive: 10 µM [inhibitor, partial curve]"
20,Cc1cc(Cl)ccc1Oc1ccccc1C(=O)CC#N,inactive
21,CN(C)CCn1c(=O)n(Cc2ccco2)c(=O)c2c3c(sc21)CCCCC3,"inconclusive: 11.2 µM [inhibitor, single point]"
